# Measurements published in PubChem BioAssay AID624417 (National Center for Advancing Translational Sciences (NCATS), 2012).
# Out of some 410,000 compounds screened, about 6,400 (1.6%) were called active. The shares of active, inactive and inconclusive entries below differ from those in the screen. The call rests on the fitted dose curve; in most records, active means well fitted inhibition curve with a large enough effect; inconclusive means small, poorly fitted or top-dose-only effect; inactive means no such curve, though single readings can be large or run the other way. No potency is given beside an inconclusive call; the fits are too rough.
# Biological target: Glucagon-like peptide 1 receptor (Homo sapiens) (UniProt P43220)
# Chain of UniProt P43220 (P43220 whole entry, looked up): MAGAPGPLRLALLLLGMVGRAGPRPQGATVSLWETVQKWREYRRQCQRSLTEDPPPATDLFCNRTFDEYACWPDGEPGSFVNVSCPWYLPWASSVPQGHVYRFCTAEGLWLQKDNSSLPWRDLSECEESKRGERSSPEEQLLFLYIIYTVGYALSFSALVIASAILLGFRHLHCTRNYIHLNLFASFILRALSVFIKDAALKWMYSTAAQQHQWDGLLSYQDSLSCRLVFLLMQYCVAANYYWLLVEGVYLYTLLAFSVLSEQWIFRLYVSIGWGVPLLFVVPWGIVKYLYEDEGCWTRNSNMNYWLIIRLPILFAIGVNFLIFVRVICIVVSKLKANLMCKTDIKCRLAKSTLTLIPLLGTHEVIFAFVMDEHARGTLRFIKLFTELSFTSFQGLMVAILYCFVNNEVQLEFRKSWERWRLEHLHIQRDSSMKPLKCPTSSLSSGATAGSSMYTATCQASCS
# Experiment: qHTS of GLP-1 Receptor Inverse Agonists (Inhibition Mode); further: nearly all actives have a fitted effect of over 55% in size
# Conditions: HEK293 GLP-1R CRE-luciferase, luminescence, 24 h, GLP-1R form is constitutively active; activity change, negative = inhibition: at 38.3 µM (top of the series) unless noted
# Summary of the method: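 Inverse agonists were sought by their lowering of basal cAMP reporter luciferase output in HEK293 cells stably carrying constitutively active human GLP-1R, after 24 h compound treatment.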
# On the % scale 0 is the no-effect control and ±100 the full control effect; potency means the concentration at half of the fitted maximal effect; tags describe the fitted curve by direction and shape.
Compound,Potency,"activity change, negative = inhibition"
COC(=O)c1ccc(NC(=O)C(=O)N2CCN(C(=S)NCCc3ccccc3)CC2)cc1,"inconclusive [inhibitor, single point]",–
CC(C)[Si]1(C(C)C)OCC2OC(n3cnc4c(N)ncnc43)C(N)C2O[Si](C(C)C)(C(C)C)O1 (stereo not drawn),"inconclusive [inhibitor, single point]",–
Cc1ccccc1NC(=S)NC(=O)Cc1ccc(Cl)cc1,"inconclusive [inhibitor, partial curve, poor fit]",–
Cc1ccc(C(=O)Nc2ccc(C)c(S(=O)(=O)Nc3ccccc3Cl)c2)s1,"inconclusive [inhibitor, single point]",–
CN(CC(=O)Nc1cc(S(=O)(=O)N2CCCC2)ccc1Cl)Cc1cccs1,"inconclusive [inhibitor, single point]",–
O=C(Cn1nnc(-c2ccccc2)n1)N/N=C/c1cc([N+](=O)[O-])ccc1O,inactive,–
C/C(=C\C(=O)c1ccc(C)cc1)NCc1ccc(F)cc1,"inconclusive [inhibitor, single point]",–
O=C(Cc1c(F)cccc1Cl)Nc1ccc(S(=O)(=O)N2CCCC2)cc1,"inconclusive [inhibitor, partial curve, poor fit]",–
CC(C)CC(=O)NC(=S)Nc1ccc(N2CCCC2)c(Cl)c1,"inconclusive [inhibitor, partial curve, poor fit]",–
C#CCOCCOCCOCCNc1nc(N2CCN(C(=O)Cn3cc(CCO)nn3)CC2)nc(N2CCN(C(=O)[C@H]([C@@H](C)CC)n3cc(CCCN=C(N)N)nn3)CC2)n1,inactive,–
CCN(C(=S)NC(=O)c1ccccc1Br)C1CCCCC1,"inconclusive [inhibitor, single point]",–
CCC1(C)OC(=O)N2CCc3c(C)[nH]c4c(C)ccc(c34)C21C (stereo not drawn),"inconclusive [inhibitor, single point]",–
Cc1ccc(C2(C(=O)N3CCC(n4nc(-c5ccccc5)oc4=O)CC3)CC2)cc1,"inconclusive [inhibitor, single point]",–
COc1ccc(NC(=O)CN(C)C(=O)c2cn(-c3ccccc3)nc2-c2ccc(Cl)cc2)cc1,"inconclusive [inhibitor, partial curve, poor fit]",–
Nc1ccc(C(=O)O)cc1,inactive,–
Cc1ccc(C(=O)NCc2ccc(N3CCN(C)CC3)cc2)cc1C,"inconclusive [inhibitor, partial curve, poor fit]",–
CCn1nc(C)c(CN2CCc3c([nH]c4ccccc34)C2C(C)(C)C)c1C (stereo not drawn),active: 7.08 µM,–
COc1cccc(CN2CC(C(=O)N(C)Cc3[nH]c4ccccc4c3C)CCC2=O)c1 (stereo not drawn),"inconclusive [inhibitor, partial curve, poor fit]",–
COc1cccc(-c2cnc(NCc3cc(Cl)ccc3O)n2C)c1,"inconclusive [inhibitor, partial curve, poor fit]",–
Nc1cc(Cl)ccc1C(=O)OCC(=O)NCc1cccs1,"inconclusive [inhibitor, single point]",–
Cn1nc(C(C)(C)C)cc1NC(=O)Nc1ccc(Cl)cc1,"inconclusive [inhibitor, partial curve, poor fit]",–

Compound,Potency,"activity change, negative = inhibition"
CCOC(=O)Nc1cccc(OCC(=O)Nc2ccc3c(c2)CCC3)c1,"inconclusive [inhibitor, single point]",–
CC1(C)Cc2c(c(-c3ccco3)nc3sc4c(NCCCO)ncnc4c23)CO1,inactive,–
COc1ccc(Cn2c(=O)c3oc4ccccc4c3n(Cc3ccccc3)c2=O)cc1,inactive,–
COc1ccccc1OCC(O)Cn1c(=N)n(Cc2ccccc2)c2ccccc21 (stereo not drawn),"inconclusive [inhibitor, single point]",–
CC(C)CNC(=O)CN(C1CCCCC1)S(=O)(=O)c1ccccc1,"inconclusive [inhibitor, single point]",–
COc1ccccc1N1CCN(C2CCCN(S(=O)(=O)c3ccc(C)cc3)C2)CC1 (stereo not drawn),"inconclusive [inhibitor, partial curve]",–
CCc1cc(=O)oc2cc(C)c3c(-c4ccc(F)cc4)coc3c12,inactive,–
CC(C)OC(=O)c1c(-c2ccc(C(C)C)cc2)csc1NC(=O)C1CCCO1 (stereo not drawn),"inconclusive [inhibitor, full curve, poor fit]",–
C=CCC1(N(C(C)=O)c2ccccc2C)CCCCC1,"inconclusive [inhibitor, single point]",–
CCCN(CCC)CCCNC(=O)c1cc2c(-c3ccc(Cl)cc3)nn(C)c2s1,inactive,–
CCOc1ccc(NC(=O)COC(=O)c2cc(S(=O)(=O)N3CCCC3)ccc2C)cc1,"inconclusive [inhibitor, single point]",–
O=Nc1c2cc(-c3ccccc3)[nH]nc-2c2ccccc12,"inconclusive [inhibitor, partial curve, poor fit]",–
O=C(Cn1sc2ccccc2c1=O)Nc1ccc(Cl)cc1,inactive,–
CC(=O)Nc1cccc(C(=O)N/N=C/c2ccc(F)cc2)c1,"inconclusive [inhibitor, single point]",–
COc1ccc2c(c1)C1=C(CC2)C(c2ccc(C)cc2)NC(=S)N1 (stereo not drawn),"inconclusive [inhibitor, single point]",–
CC(C)CNC(=S)NNC(=O)c1csc2ccccc12,"inconclusive [inhibitor, full curve, poor fit]",–
COc1ccccc1-c1c(C)nn2c(N3CCOCC3)cc(C)nc12,inactive,–
O=C(NN=Cc1ccccc1Cl)c1ccccc1,"inconclusive [inhibitor, single point]",–
Cc1ccccc1CN1C(=O)c2ccccc2Sc2ccc(C(=O)N3CCOCC3)cc21,"inconclusive [inhibitor, single point]",–
CCC(=O)c1ccc(OCC(O)Cn2cnc3ccccc32)cc1 (stereo not drawn),"inconclusive [inhibitor, single point]",–
Cc1cc(F)ccc1NC(=O)CCS(=O)(=O)c1cccc2nsnc12,inactive,–

Compound,Potency,"activity change, negative = inhibition"
CC(=O)c1[nH]c(C)c(C(=O)NCc2ccc(Cl)cc2)c1C,"inconclusive [inhibitor, partial curve]",–
S=C(Nc1ccc(Cl)cc1)NC1CCN(Cc2ccccc2)CC1,"inconclusive [inhibitor, partial curve, poor fit]",–
CC(C)(C)c1ccc(NC(=O)CSc2nnc(-c3n[nH]c4ccccc34)o2)cc1,"inconclusive [inhibitor, single point]",–
COc1ccc(Cl)cc1NC(=O)CN(C)CC(=O)Nc1c(C)n(C)n(-c2ccccc2)c1=O,active: 10 µM,–
Cc1ccc(-c2cc(-c3nnc(SCC(=O)NCC(C)C)n3N)c3ccccc3n2)cc1,"inconclusive [inhibitor, single point]",–
Clc1ccccc1CN1CCN(CCCc2ccccc2)CC1,"inconclusive [inhibitor, single point]",–
CN(Cc1nc(-c2cccs2)no1)CC1(N2CCOCC2)CCCCC1,"inconclusive [inhibitor, partial curve, poor fit]",–
COCc1cc(CN2CCN(CCCc3ccccc3)C(CCO)C2)ccc1OC (stereo not drawn),"inconclusive [inhibitor, full curve, poor fit]",–
Cc1cccc(SC2CCN(Cc3nc(CC4CC4)no3)CC2)c1,–,inactive: -5.26% [at 0.307 µM]
CC(C)c1ccc(/C=C2\Oc3c(ccc(O)c3CN3CCN(C)CC3)C2=O)cc1,"inconclusive [inhibitor, partial curve, poor fit]",–
Cc1ccn2c(Nc3ccc4c(c3)OCCO4)c(-c3ccc(C)s3)nc2c1,"inconclusive [inhibitor, full curve, poor fit]",–
CC(=O)Nc1ccc(-c2ccnc3c2CC(C)(C(=O)Nc2ccc(C(C)C)cc2)O3)cc1 (stereo not drawn),"inconclusive [inhibitor, single point]",–
COc1ccccc1NS(=O)(=O)c1ccc(C(=O)NCC(c2ccco2)N2CCCCC2)cc1 (stereo not drawn),"inconclusive [inhibitor, single point]",–
CCCCNC(=O)C1(C)CCCCCN1Cc1cccc2c(OC)cc(C(=O)OCC)cc12 (stereo not drawn),"inconclusive [inhibitor, partial curve]",–
CCNC(=O)NC(=O)COC(=O)CCCc1nc2ccccc2s1,–,inactive: 0.112% [at 0.307 µM]
Cc1c(C(=O)N2CCC(C)CC2)c(S(=O)(=O)N2CCN(c3cccc(Cl)c3)CC2)c(C)n1C,"inconclusive [inhibitor, single point]",–
C=CCn1c(NC(=O)c2ccc(Br)o2)c(S(=O)(=O)c2ccccc2)c2nc3ccccc3nc21,"inconclusive [inhibitor, single point]",–
COc1ccccc1/C=N/OCc1cc(C(C)=O)ccc1OC,–,inconclusive: -63.8% [inhibitor]
COc1ccccc1Cc1nc2ccccc2nc1SCC(=O)N1CCC(C)CC1,inactive,–
CCOC(=O)C1CCCN(C(=O)c2cnn3c(C(F)F)cc(-c4ccc(C)cc4)nc23)C1 (stereo not drawn),"inconclusive [inhibitor, partial curve, poor fit]",–
Cc1ccc(Cl)cc1NC(=O)CN1CCN(S(=O)(=O)N2CCC(C)CC2)CC1,"inconclusive [inhibitor, single point]",–
